# Reference: the supplement of paper PMC8728848
# This is one part of the list.
# How the values were obtained:
# Experiment in all cases: glycan array binding signal (z-score within array); higher = stronger binding
# Conditions in all cases: glycan notation: IUPAC condensed, linker removed
# [1] = biological target: Fuc(a1-3)[Gal3S(b1-4)]GlcNAc(b1-3)Gal(b1-4)Glc
# Summary of the method: (§1)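 The binding signal is a Z-score computed within each array. Data were drawn from 3228 arrays in the Consortium for Functional Glycomics database, restricted to those with a known protein sequence. Scores were averaged over arrays of the same protein sequence at different concentrations or buffers, and over linkers, and negative values can be taken as non-binding.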
# [2] = biological target: Fuc(a1-3)[Gal3S(b1-4)]GlcNAc6S(b1-3)Gal(b1-4)Glc
# Summary of the method: as §1
# [3] = biological target: Fuc(a1-3)[Gal6S(b1-4)]GlcNAc(b1-3)Gal(b1-4)Glc
# Summary of the method: as §1
# Fuc(a1-6)GlcNAc = biological target: Fuc(a1-6)GlcNAc
# Summary of the method: as §1
# Gal(a1-4)Gal(b1-4)Glc = biological target: Gal(a1-4)Gal(b1-4)Glc
# Summary of the method: as §1
# Gal(a1-4)Gal(b1-4)GlcNAc = biological target: Gal(a1-4)Gal(b1-4)GlcNAc
# Summary of the method: as §1
# Gal(a1-6)Glc = biological target: Gal(a1-6)Glc
# Summary of the method: as §1
# Gal(b1-3)GalNAc = biological target: Gal(b1-3)GalNAc
# Summary of the method: as §1
# [4] = biological target: Gal(b1-3)GalNAc(b1-4)Gal(b1-4)Glc
# Summary of the method: as §1
# [5] = biological target: Gal(b1-3)GalNAc(b1-4)Gal3S(b1-4)Glc
# Summary of the method: as §1
# [6] = biological target: Gal(b1-3)GalNAc(b1-4)[Neu5Ac(a2-3)]Gal(b1-4)Glc
# Summary of the method: as §1
# [7] = biological target: Gal(b1-3)GalNAc(b1-4)[Neu5Gc(a2-3)]Gal(b1-4)Glc
# Summary of the method: as §1
# Gal(b1-3)GlcNAc = biological target: Gal(b1-3)GlcNAc
# Summary of the method: as §1
# [8] = biological target: Gal(b1-3)GlcNAc(b1-3)Gal(b1-4)Glc
# Summary of the method: as §1
# [9] = biological target: Gal(b1-3)GlcNAc(b1-3)Gal(b1-4)GlcNAc(b1-3)Gal(b1-4)Glc
# Summary of the method: as §1
# [10] = biological target: Gal(b1-3)GlcNAc(b1-3)Gal(b1-4)GlcNAc(b1-6)[Gal(b1-3)GlcNAc(b1-3)]Gal(b1-4)Glc
# Summary of the method: as §1
# [11] = biological target: Gal(b1-3)GlcNAc(b1-3)Gal(b1-4)[Fuc(a1-3)]GlcNAc(b1-3)Gal(b1-4)Glc
# Summary of the method: as §1
# [12] = biological target: Gal(b1-3)GlcNAc(b1-3)Gal(b1-4)[Fuc(a1-3)]GlcNAc(b1-6)[Gal(b1-3)GlcNAc(b1-3)]Gal(b1-4)Glc
# Summary of the method: as §1
# [13] = biological target: Gal(b1-3)GlcNAc(b1-3)[Fuc(a1-3)[Gal(b1-4)]GlcNAc(b1-6)]Gal(b1-4)Glc
# Summary of the method: as §1
# [14] = biological target: Gal(b1-3)GlcNAc(b1-3)[Fuc(a1-3)[Gal(b1-4)]GlcNAc(b1-6)]Gal(b1-4)]GlcNAc(b1-6)[Gal(b1-4)]GlcNAc(b1-3)]Gal(b1-4)Glc
# Summary of the method: as §1
# [15] = biological target: Gal(b1-3)GlcNAc(b1-3)[Gal(b1-4)GlcNAc(b1-6)]Gal(b1-4)Glc
# Summary of the method: as §1
# [16] = biological target: Gal(b1-3)GlcNAc(b1-3)[Gal(b1-4)GlcNAc(b1-6)]Gal(b1-4)GlcNAc(b1-6)[Gal(b1-3)GlcNAc(b1-3)]Gal(b1-4)Glc
# Summary of the method: as §1
# [17] = biological target: Gal(b1-3)[Fuc(a1-4)]GlcNAc
# Summary of the method: as §1
# [18] = biological target: Gal(b1-3)[Fuc(a1-4)]GlcNAc(b1-3)Gal(b1-4)Glc
# Summary of the method: as §1
# [19] = biological target: Gal(b1-3)[Fuc(a1-4)]GlcNAc(b1-3)Gal(b1-4)[Fuc(a1-3)]Glc
# Summary of the method: as §1
# [20] = biological target: Gal(b1-3)[Fuc(a1-4)]GlcNAc(b1-3)Gal(b1-4)[Fuc(a1-3)]GlcNAc(b1-3)Gal(b1-4)Glc
# Summary of the method: as §1
# [21] = biological target: Gal(b1-3)[Fuc(a1-4)]GlcNAc(b1-3)Gal(b1-4)[Fuc(a1-3)]GlcNAc(b1-6)[Gal(b1-3)[Fuc(a1-4)]GlcNAc(b1-3)]Gal(b1-4)Glc
# Summary of the method: as §1
# [22] = biological target: Gal(b1-3)[Fuc(a1-4)]GlcNAc(b1-3)[Fuc(a1-3)[Gal(b1-4)]GlcNAc(b1-6)]Gal(b1-4)Glc
# Summary of the method: as §1
# [23] = biological target: Gal(b1-3)[Neu5Ac(a2-6)]GlcNAc(b1-3)Gal(b1-4)Glc
# Summary of the method: as §1
# Gal(b1-4)Glc = biological target: Gal(b1-4)Glc
# Summary of the method: as §1
# Gal(b1-4)GlcNAc = biological target: Gal(b1-4)GlcNAc
# Summary of the method: as §1
# [24] = biological target: Gal(b1-4)GlcNAc(b1-2)Man(a1-3)[Gal(b1-4)GlcNAc(b1-2)Man(a1-6)]Man(b1-4)GlcNAc(b1-4)GlcNAc
# Summary of the method: as §1
# [25] = biological target: Gal(b1-4)GlcNAc(b1-2)Man(a1-3)[Gal(b1-4)GlcNAc(b1-2)Man(a1-6)]Man(b1-4)GlcNAc(b1-4)[Fuc(a1-6)]GlcNAc
# Summary of the method: as §1
# [26] = biological target: Gal(b1-4)GlcNAc(b1-2)Man(a1-3)[Gal(b1-4)GlcNAc(b1-2)Man(a1-6)][GlcNAc(b1-4)]Man(b1-4)GlcNAc(b1-4)[Fuc(a1-6)]GlcNAc
# Summary of the method: as §1
# [27] = biological target: Gal(b1-4)GlcNAc(b1-2)Man(a1-3)[Man(a1-6)]Man(b1-4)GlcNAc(b1-4)GlcNAc
# Summary of the method: as §1
# [28] = biological target: Gal(b1-4)GlcNAc(b1-2)Man(a1-6)[GlcNAc(b1-2)Man(a1-3)]Man(b1-4)GlcNAc(b1-4)[Fuc(a1-6)]GlcNAc
# Summary of the method: as §1
# [29] = biological target: Gal(b1-4)GlcNAc(b1-2)Man(a1-6)[Man(a1-3)]Man(b1-4)GlcNAc(b1-4)GlcNAc
# Summary of the method: as §1
# [30] = biological target: Gal(b1-4)GlcNAc(b1-2)Man(a1-6)[Man(a1-3)]Man(b1-4)GlcNAc(b1-4)[Fuc(a1-6)]GlcNAc
# Summary of the method: as §1
binder,measurement,setting,value
"HysACBM (Streptococcus pneumoniae), Q54873 (protein) KNLVENGDFGQTEDGSSPWTGSKAQGWSAWVDQKNSADASTRVIEAKDGAITISSHEKLRAALHRMVPIEAKKKYKLRFKIKTDNKIGIAKVRIIEESGKDKRLWNSATTSGTKDWQTIEADYSPTLDVDKIKLELFYETGTGTVSFKDIELVEVADQLS",glycan array binding signal (z-score),[1],-0.091
same,glycan array binding signal (z-score),[2],0.088
same,glycan array binding signal (z-score),[3],-0.085
same,glycan array binding signal (z-score),Fuc(a1-6)GlcNAc,-0.057
same,glycan array binding signal (z-score),Gal(a1-4)Gal(b1-4)Glc,-0.091
same,glycan array binding signal (z-score),Gal(a1-4)Gal(b1-4)GlcNAc,-0.091
same,glycan array binding signal (z-score),Gal(a1-6)Glc,0.12
same,glycan array binding signal (z-score),Gal(b1-3)GalNAc,-0.08
same,glycan array binding signal (z-score),[4],0.174
same,glycan array binding signal (z-score),[5],-0.091
same,glycan array binding signal (z-score),[6],-0.091
same,glycan array binding signal (z-score),[7],-0.091
same,glycan array binding signal (z-score),Gal(b1-3)GlcNAc,0.076
same,glycan array binding signal (z-score),[8],-0.091
same,glycan array binding signal (z-score),[9],-0.091
same,glycan array binding signal (z-score),[10],-0.091
same,glycan array binding signal (z-score),[11],-0.091
same,glycan array binding signal (z-score),[12],-0.091
same,glycan array binding signal (z-score),[13],0.213
same,glycan array binding signal (z-score),[14],-0.091
same,glycan array binding signal (z-score),[15],-0.091
same,glycan array binding signal (z-score),[16],-0.017
same,glycan array binding signal (z-score),[17],-0.091
same,glycan array binding signal (z-score),[18],-0.091
same,glycan array binding signal (z-score),[19],-0.091
same,glycan array binding signal (z-score),[20],-0.004
same,glycan array binding signal (z-score),[21],-0.091
same,glycan array binding signal (z-score),[22],-0.091
same,glycan array binding signal (z-score),[23],-0.091
same,glycan array binding signal (z-score),Gal(b1-4)Glc,0.045
same,glycan array binding signal (z-score),Gal(b1-4)GlcNAc,-0.058
same,glycan array binding signal (z-score),[24],-0.091
same,glycan array binding signal (z-score),[25],-0.091
same,glycan array binding signal (z-score),[26],-0.091
same,glycan array binding signal (z-score),[27],-0.03
same,glycan array binding signal (z-score),[28],-0.091
same,glycan array binding signal (z-score),[29],-0.091
same,glycan array binding signal (z-score),[30],-0.007
